Measured values reported in the supplement of paper PMC4604168 (melanoma cell lines).
The other results are listed elsewhere or left out. Single values are uncertain, as repeats are few or missing.

System: SkMel30
Test: cell count relative to DMSO control; melanoma cells; higher = more viable cells
Details: library dose: standard library concentration; 72 h
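Also: cells treated in 1,536-well plates, then fixed and DAPI-stained, with nuclei counted from automated high-throughput microscope images.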

**Q.** With CC1(C)CCC(c2ccc(Cl)cc2)=C(CN2CCN(c3ccc(C(=O)NS(=O)(=O)c4ccc(N[C@H](CCN5CCOCC5)CSc5ccccc5)c(S(=O)(=O)C(F)(F)F)c4)cc3)CC2)C1 + Cc1cc([N+](=O)[O-])ccc1NS(=O)(=O)c1cc(Cl)ccc1Cl [FH535] (first compound 2 µM, partner dose 5 µM) as the compound, how does the cell count read?
**A.** Its cell count is 56.3%.

**Q.** For O=C(/C=C/c1cccnc1)NCCCCC1CCN(C(=O)c2ccccc2)CC1 + CCc1ccc(CCOc2ccc(CC3SC(=O)NC3=O)cc2)nc1 [pioglitazone] (first compound 0.05 µM, partner dose 10 µM), which cell count is on record?
**A.** The cell count was 95%.

**Q.** For Cc1ccc(Nc2nccc(N(C)c3ccc4c(C)n(C)nc4c3)n2)cc1S(N)(=O)=O [Pazopanib] + COc1cc(N2CCC(N3CCN(C)CC3)CC2)ccc1Nc1ncc(Cl)c(Nc2ccccc2S(=O)(=O)C(C)C)n1 [NVP-TAE684] (first compound 2 µM, partner dose 0.4 µM), which cell count is on record?
**A.** The cell count was 101%.

**Q.** O=C(/C=C/c1cccnc1)NCCCCC1CCN(C(=O)c2ccccc2)CC1 + COc1ccc(-c2ccc3c(N4CCOCC4)nc(N4C[C@@H](C)O[C@@H](C)C4)nc3n2)cc1CO [KU0063794] (first compound 0.05 µM, partner dose 0.1 µM) was tested. Which cell count did it give?
**A.** The cell count was 84.7%.

**Q.** Cc1ccc(Nc2nccc(N(C)c3ccc4c(C)n(C)nc4c3)n2)cc1S(N)(=O)=O [Pazopanib] + CCN(CC)CCCCNc1ncc2cc(-c3cc(OC)cc(OC)c3)c(NC(=O)NC(C)(C)C)nc2n1 [PD173074] (first compound 2 µM, partner dose 0.5 µM) was tested. Which cell count did it give?
**A.** The cell count was 102%.

**Q.** With CC1(C)CCC(c2ccc(Cl)cc2)=C(CN2CCN(c3ccc(C(=O)NS(=O)(=O)c4ccc(N[C@H](CCN5CCOCC5)CSc5ccccc5)c(S(=O)(=O)C(F)(F)F)c4)cc3)CC2)C1 + NCC(=O)Nc1ccc(-n2nc(C(F)(F)F)cc2-c2ccc3c(ccc4ccccc43)c2)cc1 [OSU03012] (first compound 2 µM, partner dose 5 µM) as the compound, how does the cell count read?
**A.** The cell count was 9.76%.

**Q.** CC1(C)CCC(c2ccc(Cl)cc2)=C(CN2CCN(c3ccc(C(=O)NS(=O)(=O)c4ccc(N[C@H](CCN5CCOCC5)CSc5ccccc5)c(S(=O)(=O)C(F)(F)F)c4)cc3)CC2)C1 + Cc1cc(Nc2cc(N3CCN(C)CC3)nc(/C=C/c3ccccc3)n2)n[nH]1 [ENMD2076] (first compound 2 µM, partner dose 0.2 µM) was tested. Which cell count did it give?
**A.** The cell count was 44.4%.

**Q.** Which cell count does the source give for Cc1ccc(Nc2nccc(N(C)c3ccc4c(C)n(C)nc4c3)n2)cc1S(N)(=O)=O [Pazopanib] + c1cc(-c2cnn3cc(-c4ccc(OCCN5CCCCC5)cc4)cnc23)ccn1 [Dorsomorphin] (first compound 2 µM, partner dose 2 µM) here?
**A.** The cell count was 67.5%.

**Q.** With CC1(C)CCC(c2ccc(Cl)cc2)=C(CN2CCN(c3ccc(C(=O)NS(=O)(=O)c4ccc(N[C@H](CCN5CCOCC5)CSc5ccccc5)c(S(=O)(=O)C(F)(F)F)c4)cc3)CC2)C1 + CCc1ccc(CCOc2ccc(CC3SC(=O)NC3=O)cc2)nc1 [pioglitazone] (first compound 2 µM, partner dose 10 µM) as the compound, how does the cell count read?
**A.** The cell count was 61.7%.

**Q.** Which cell count does the source give for Cc1ccc(Nc2nccc(N(C)c3ccc4c(C)n(C)nc4c3)n2)cc1S(N)(=O)=O [Pazopanib] + COC(=O)c1sccc1S(=O)(=O)Nc1ccc(Nc2ccccc2)cc1OC [GSK0660] (first compound 2 µM, partner dose 5 µM) here?
**A.** The cell count was 85.9%.

**Q.** With Cc1ccc(Nc2nccc(N(C)c3ccc4c(C)n(C)nc4c3)n2)cc1S(N)(=O)=O [Pazopanib] + C#Cc1cccc(Nc2ncnc3cc(OCCOC)c(OCCOC)cc23)c1 [erlotinib] (first compound 2 µM, partner dose 4 µM) as the compound, how does the cell count read?
**A.** The cell count was 70.7%.

**Q.** Which cell count does the source give for O=C(/C=C/c1cccnc1)NCCCCC1CCN(C(=O)c2ccccc2)CC1 + CN(NC(=O)CC(=O)NN(C)C(=S)c1ccccc1)C(=S)c1ccccc1 [STA4783] (first compound 0.05 µM, partner dose 0.03 µM) here?
**A.** Its cell count is 88.6%.

**Q.** How did the cell count turn out when CC1(C)CCC(c2ccc(Cl)cc2)=C(CN2CCN(c3ccc(C(=O)NS(=O)(=O)c4ccc(N[C@H](CCN5CCOCC5)CSc5ccccc5)c(S(=O)(=O)C(F)(F)F)c4)cc3)CC2)C1 + O=C(O)C(=O)Nc1sc2c(c1C(=O)O)CCNC2 [TCS401] (first compound 2 µM, partner dose 8.33333 µM) was run?
**A.** Its cell count is 97.3%.

**Q.** Which cell count does the source give for Cc1ccc(Nc2nccc(N(C)c3ccc4c(C)n(C)nc4c3)n2)cc1S(N)(=O)=O [Pazopanib] + O=S(=O)(c1ccccc1)N(CC(F)(F)F)c1ccc(C(O)(C(F)(F)F)C(F)(F)F)cc1 [T0901317] (first compound 2 µM, partner dose 7 µM) here?
**A.** Its cell count is 87.7%.

**Q.** For O=C(/C=C/c1cccnc1)NCCCCC1CCN(C(=O)c2ccccc2)CC1 + COc1ccc(COc2ccc(Cc3cnc(N)nc3N)cc2OC)cc1 [GW2580] (first compound 0.05 µM, partner dose 5 µM), which cell count is on record?
**A.** Its cell count is 84.2%.

**Q.** Cc1ccc(Nc2nccc(N(C)c3ccc4c(C)n(C)nc4c3)n2)cc1S(N)(=O)=O [Pazopanib] + CCCCCCCCCCCC1=C(O)C(=O)C=C(O)C1=O [Embelin] (first compound 2 µM, partner dose 6 µM) was tested. Which cell count did it give?
**A.** The cell count was 83.1%.

**Q.** How did the cell count turn out when Cc1ccc(Nc2nccc(N(C)c3ccc4c(C)n(C)nc4c3)n2)cc1S(N)(=O)=O [Pazopanib] + O=c1cc(-c2cccc3c2Sc2ccccc2S3)oc(N2CCOCC2)c1 [KU55933] (first compound 2 µM, partner dose 5 µM) was run?
**A.** Its cell count is 99.5%.

**Q.** O=C(/C=C/c1cccnc1)NCCCCC1CCN(C(=O)c2ccccc2)CC1 + O=C(Nc1cccc(Cl)c1)Nc1ncc(CCNc2ncnc3ccsc23)s1 [SNS314] (first compound 0.05 µM, partner dose 0.004 µM) was tested. Which cell count did it give?
**A.** Its cell count is 100%.

**Q.** Which cell count does the source give for O=C(/C=C/c1cccnc1)NCCCCC1CCN(C(=O)c2ccccc2)CC1 + COc1cc(N2CCC(N3CCN(C)CC3)CC2)ccc1Nc1ncc(Cl)c(Nc2ccccc2S(=O)(=O)C(C)C)n1 [NVP-TAE684] (first compound 0.05 µM, partner dose 0.4 µM) here?
**A.** Its cell count is 99%.

**Q.** Which cell count does the source give for Cc1ccc(Nc2nccc(N(C)c3ccc4c(C)n(C)nc4c3)n2)cc1S(N)(=O)=O [Pazopanib] + COc1cc2ncnc(Nc3ccc(Oc4ccccc4)cc3)c2cc1OC [SrcI1] (first compound 2 µM, partner dose 10 µM) here?
**A.** The cell count was 78.3%.

**Q.** For Cc1ccc(Nc2nccc(N(C)c3ccc4c(C)n(C)nc4c3)n2)cc1S(N)(=O)=O [Pazopanib] + OCCn1cc(-c2cnc3nnn(Cc4ccc5ncccc5c4)c3n2)cn1 [PF04217903] (first compound 2 µM, partner dose 5 µM), which cell count is on record?
**A.** The cell count was 98.4%.

**Q.** How did the cell count turn out when Cc1ccc(Nc2nccc(N(C)c3ccc4c(C)n(C)nc4c3)n2)cc1S(N)(=O)=O [Pazopanib] + Cn1cc(/C=C2\C(=O)Nc3cccnc32)c2ccccc21 [GW441756] (first compound 2 µM, partner dose 2 µM) was run?
**A.** Its cell count is 87.2%.

**Q.** For Cc1ccc(Nc2nccc(N(C)c3ccc4c(C)n(C)nc4c3)n2)cc1S(N)(=O)=O [Pazopanib] + OCc1c[nH]c2ccccc12 [Indole-3-carbinol] (first compound 2 µM, partner dose 4 µM), which cell count is on record?
**A.** The cell count was 90.6%.

**Q.** With CC1(C)CCC(c2ccc(Cl)cc2)=C(CN2CCN(c3ccc(C(=O)NS(=O)(=O)c4ccc(N[C@H](CCN5CCOCC5)CSc5ccccc5)c(S(=O)(=O)C(F)(F)F)c4)cc3)CC2)C1 + COc1cc2c(Oc3ccc4[nH]c(C)cc4c3F)ncnc2cc1OCCCN1CCCC1 [cediranib] (first compound 2 µM, partner dose 2 µM) as the compound, how does the cell count read?
**A.** The cell count was 65.6%.

**Q.** CC1(C)CCC(c2ccc(Cl)cc2)=C(CN2CCN(c3ccc(C(=O)NS(=O)(=O)c4ccc(N[C@H](CCN5CCOCC5)CSc5ccccc5)c(S(=O)(=O)C(F)(F)F)c4)cc3)CC2)C1 + COc1cc(N2CCC(N3CCN(C)CC3)CC2)ccc1Nc1ncc(Cl)c(Nc2ccccc2S(=O)(=O)C(C)C)n1 [NVP-TAE684] (first compound 2 µM, partner dose 0.4 µM) was tested. Which cell count did it give?
**A.** Its cell count is 85.1%.

**Q.** Which cell count does the source give for CC1(C)CCC(c2ccc(Cl)cc2)=C(CN2CCN(c3ccc(C(=O)NS(=O)(=O)c4ccc(N[C@H](CCN5CCOCC5)CSc5ccccc5)c(S(=O)(=O)C(F)(F)F)c4)cc3)CC2)C1 + Cn1cc(/C=C2\C(=O)Nc3cccnc32)c2ccccc21 [GW441756] (first compound 2 µM, partner dose 2 µM) here?
**A.** The cell count was 72.5%.

**Q.** With O=C(/C=C/c1cccnc1)NCCCCC1CCN(C(=O)c2ccccc2)CC1 + COc1cc2ncnc(Nc3ccc(Oc4ccccc4)cc3)c2cc1OC [SrcI1] (first compound 0.05 µM, partner dose 10 µM) as the compound, how does the cell count read?
**A.** Its cell count is 79.5%.

**Q.** For O=C(/C=C/c1cccnc1)NCCCCC1CCN(C(=O)c2ccccc2)CC1 + O=S(=O)(c1ccccc1)N(CC(F)(F)F)c1ccc(C(O)(C(F)(F)F)C(F)(F)F)cc1 [T0901317] (first compound 0.05 µM, partner dose 7 µM), which cell count is on record?
**A.** The cell count was 100%.

**Q.** For CC1(C)CCC(c2ccc(Cl)cc2)=C(CN2CCN(c3ccc(C(=O)NS(=O)(=O)c4ccc(N[C@H](CCN5CCOCC5)CSc5ccccc5)c(S(=O)(=O)C(F)(F)F)c4)cc3)CC2)C1 + COC(=O)c1sccc1S(=O)(=O)Nc1ccc(Nc2ccccc2)cc1OC [GSK0660] (first compound 2 µM, partner dose 5 µM), which cell count is on record?
**A.** The cell count was 75.4%.
